{
  "source": "the supplement of paper PMC8728848",
  "binders": {"B1": {"name": "CwpV (Clostridium difficile), B6EFG6 (protein)", "chain": "MKIPKKIAAMLTVTMIAGSSTAGIASAQTVATNLTGQERYETAVKISQDGWKNADEVVIVNDSSIADALSATPFAKAKNAPILLTSKDKLNDKTKAEIQRLKAKKVYLIGGTSVLSTNIEKEIKDLKISFERISGAERYQTSLELAKKLDAISDVKKIAVVNGEKGLADAVSVGAPAAQNNMPVILADSKNGTAVADKFIKDAGITQSYVVGGESSISEAVKNKLPNSTRLGGTDRNDTNAKVIKEFYKKTDLKNAYVTKDGMNKQDQLIDALAVGVLGAKNQSPVVLVGKNLSASQKSLVNSKSFDKITKVGGNGNETAFNEMKSLQEVKTVEAKTISELKSAIDKATANDVINFKPTSEVKEAFTIQTDKAVTVNLNGTYTKTVTINMPNGDVNNYAKVDDVVIDDVKDGTFVNYGKITNLKVNDKNGAKIENNSKGEIGSLTVASGASQVKVTNGGKITTVTNNSKGTTIDNKGTISSVKGDNSPTISGNSPSSNSSGGSSSSGGSSGGSSGGSSSSKVGQIKFSATDKQIKMASGDKTVDPSDNTYILKLTNGTVKDGDVKANVKVAGLPSGLDYTAVGNRSANTITITVSGTTSQSIQNDLNNVSVLVKAGAVSGTGATDSIANTTFEIKKYVAAPAVGQLTFDATDKQIKMASGDKTVDPSDDTYVLTLTKGTAKDGDIKANVEVTGLPSGLDYTAEGDSSANTITIPVSGTASPAVQTDLDNVSVLVKAGAVSETTATDSAANATFEVKKYVAPAVGQLTFDATDKQIKMASGDKTVDPSDDTYVLTLTKGTAKDGDIKANVEVTGLPSGLDYTAEGDSSANTITITVSGTASQAVQTDLDNVSVLVKAGAVSETTATDSAANATFEVKKYVAPAIGQLTFDATDKQIKMASGDKTVDPSDDTYVLTLTKGTAKDGDIKANVEVTGLPSGLDYTAEGDSSANTITITVSGTASQAVQTDLDNVSVLVKAGAVSETTATDSAANATFEVKKHASDPISTIGKISSGLSSLFNILK"}},
  "assay_in_all_cases": "glycan array binding signal (z-score within array); higher = stronger binding",
  "conditions_in_all_cases": "glycan notation: IUPAC condensed, linker removed",
  "key": {"[1]": {"molecular_target": "Gal(b1-3)GlcNAc(b1-3)Gal(b1-4)[Fuc(a1-3)]GlcNAc(b1-6)[Gal(b1-3)GlcNAc(b1-3)]Gal(b1-4)Glc", "in_short": "(§1)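 Negative Z-scores can be read as non-binding. The Z-score is calculated within each array and then averaged across arrays of one protein sequence at different concentrations or buffers and across linkers. Arrays, 3228 in all, were curated from the Consortium for Functional Glycomics database and kept only where the protein sequence was available.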"}, "[2]": {"molecular_target": "Gal(b1-3)GlcNAc(b1-3)GalNAc", "in_short": "as §1"}, "[3]": {"molecular_target": "Gal(b1-3)GlcNAc(b1-6)Gal(b1-4)GlcNAc", "in_short": "as §1"}, "[4]": {"molecular_target": "Gal(b1-3)[Fuc(a1-4)]GlcNAc", "in_short": "as §1"}, "[5]": {"molecular_target": "Gal(b1-3)[Fuc(a1-4)]GlcNAc(b1-2)Man(a1-3)[Gal(b1-3)[Fuc(a1-4)]GlcNAc(b1-2)Man(a1-6)]Man(b1-4)GlcNAc(b1-4)GlcNAc", "in_short": "as §1"}, "[6]": {"molecular_target": "Gal(b1-3)[Fuc(a1-4)]GlcNAc(b1-2)Man(a1-3)[Gal(b1-3)[Fuc(a1-4)]GlcNAc(b1-2)Man(a1-6)]Man(b1-4)GlcNAc(b1-4)[Fuc(a1-6)]GlcNAc", "in_short": "as §1"}, "[7]": {"molecular_target": "Gal(b1-3)[Fuc(a1-4)]GlcNAc(b1-3)Gal(b1-3)[Fuc(a1-4)]GlcNAc", "in_short": "as §1"}, "[8]": {"molecular_target": "Gal(b1-3)[Fuc(a1-4)]GlcNAc(b1-3)Gal(b1-4)GlcNAc", "in_short": "as §1"}, "[9]": {"molecular_target": "Gal(b1-3)[Fuc(a1-4)]GlcNAc(b1-3)Gal(b1-4)[Fuc(a1-3)]GlcNAc", "in_short": "as §1"}, "[10]": {"molecular_target": "Gal(b1-3)[GlcNAc(b1-6)]GalNAc", "in_short": "as §1"}, "[11]": {"molecular_target": "Gal(b1-3)[Neu5Ac(a2-6)]GalNAc", "in_short": "as §1"}, "[12]": {"molecular_target": "Gal(b1-3)[Neu5Ac(a2-6)]GlcNAc(b1-6)Gal(b1-4)Glc", "in_short": "as §1"}, "[13]": {"molecular_target": "Gal(b1-3)[Neu5Ac(b2-6)]GalNAc", "in_short": "as §1"}, "[14]": {"molecular_target": "Gal(b1-4)Gal", "in_short": "as §1"}, "[15]": {"molecular_target": "Gal(b1-4)GalNAc(a1-3)[Fuc(a1-2)]Gal(b1-4)GlcNAc", "in_short": "as §1"}, "[16]": {"molecular_target": "Gal(b1-4)GalNAc(b1-3)[Fuc(a1-2)]Gal(b1-4)GlcNAc", "in_short": "as §1"}, "[17]": {"molecular_target": "Gal(b1-4)Glc", "in_short": "as §1"}, "[18]": {"molecular_target": "Gal(b1-4)Glc6S", "in_short": "as §1"}, "[19]": {"molecular_target": "Gal(b1-4)GlcNAc", "in_short": "as §1"}, "[20]": {"molecular_target": "Gal(b1-4)GlcNAc(a1-6)Gal(b1-4)GlcNAc", "in_short": "as §1"}, "[21]": {"molecular_target": "Gal(b1-4)GlcNAc(b1-2)Man(a1-3)Man(b1-4)GlcNAc(b1-4)GlcNAc", "in_short": "as §1"}, "[22]": {"molecular_target": "Gal(b1-4)GlcNAc(b1-2)Man(a1-3)[Gal(b1-4)GlcNAc(b1-2)Man(a1-6)]Man(b1-4)GlcNAc(b1-4)GlcNAc", "in_short": "as §1"}, "[23]": {"molecular_target": "Gal(b1-4)GlcNAc(b1-2)Man(a1-3)[Gal(b1-4)GlcNAc(b1-2)Man(a1-6)]Man(b1-4)GlcNAc(b1-4)[Fuc(a1-6)]GlcNAc", "in_short": "as §1"}, "[24]": {"molecular_target": "Gal(b1-4)GlcNAc(b1-2)Man(a1-3)[Gal(b1-4)GlcNAc(b1-2)][GlcNAc(b1-4)]Man(b1-4)GlcNAc(b1-4)GlcNAc", "in_short": "as §1"}, "[25]": {"molecular_target": "Gal(b1-4)GlcNAc(b1-2)Man(a1-3)[GlcNAc(b1-2)Man(a1-6)]Man(b1-4)GlcNAc(b1-4)GlcNAc", "in_short": "as §1"}, "[26]": {"molecular_target": "Gal(b1-4)GlcNAc(b1-2)Man(a1-3)[Man(a1-6)]Man(b1-4)GlcNAc(b1-4)GlcNAc", "in_short": "as §1"}, "[27]": {"molecular_target": "Gal(b1-4)GlcNAc(b1-2)Man(a1-6)Man(b1-4)GlcNAc(b1-4)GlcNAc", "in_short": "as §1"}, "[28]": {"molecular_target": "Gal(b1-4)GlcNAc(b1-2)Man(a1-6)[GlcNAc(b1-2)Man(a1-3)]Man(b1-4)GlcNAc(b1-4)GlcNAc", "in_short": "as §1"}, "[29]": {"molecular_target": "Gal(b1-4)GlcNAc(b1-2)Man(a1-6)[Man(a1-3)]Man(b1-4)GlcNAc(b1-4)GlcNAc", "in_short": "as §1"}, "[30]": {"molecular_target": "Gal(b1-4)GlcNAc(b1-2)[Gal(b1-4)GlcNAc(b1-4)]Man(a1-3)[Gal(b1-4)GlcNAc(b1-2)Man(a1-6)]Man(b1-4)GlcNAc(b1-4)GlcNAc", "in_short": "as §1"}},
  "note": "This is one part of the list.",
  "data": [
    {"binder": "B1", "values": [
      {"measurement": "glycan array binding signal (z-score)", "setting": "[1]", "result": -0.342},
      {"measurement": "glycan array binding signal (z-score)", "setting": "[2]", "result": -0.155},
      {"measurement": "glycan array binding signal (z-score)", "setting": "[3]", "result": -0.262},
      {"measurement": "glycan array binding signal (z-score)", "setting": "[4]", "result": -0.256},
      {"measurement": "glycan array binding signal (z-score)", "setting": "[5]", "result": 1.14},
      {"measurement": "glycan array binding signal (z-score)", "setting": "[6]", "result": 0.761},
      {"measurement": "glycan array binding signal (z-score)", "setting": "[7]", "result": 0.444},
      {"measurement": "glycan array binding signal (z-score)", "setting": "[8]", "result": -0.269},
      {"measurement": "glycan array binding signal (z-score)", "setting": "[9]", "result": 0.08},
      {"measurement": "glycan array binding signal (z-score)", "setting": "[10]", "result": -0.281},
      {"measurement": "glycan array binding signal (z-score)", "setting": "[11]", "result": -0.248},
      {"measurement": "glycan array binding signal (z-score)", "setting": "[12]", "result": -0.259},
      {"measurement": "glycan array binding signal (z-score)", "setting": "[13]", "result": -0.275},
      {"measurement": "glycan array binding signal (z-score)", "setting": "[14]", "result": -0.225},
      {"measurement": "glycan array binding signal (z-score)", "setting": "[15]", "result": -0.229},
      {"measurement": "glycan array binding signal (z-score)", "setting": "[16]", "result": -0.256},
      {"measurement": "glycan array binding signal (z-score)", "setting": "[17]", "result": -0.18},
      {"measurement": "glycan array binding signal (z-score)", "setting": "[18]", "result": -0.301},
      {"measurement": "glycan array binding signal (z-score)", "setting": "[19]", "result": -0.248},
      {"measurement": "glycan array binding signal (z-score)", "setting": "[20]", "result": -0.327},
      {"measurement": "glycan array binding signal (z-score)", "setting": "[21]", "result": -0.222},
      {"measurement": "glycan array binding signal (z-score)", "setting": "[22]", "result": -0.318},
      {"measurement": "glycan array binding signal (z-score)", "setting": "[23]", "result": 0.025},
      {"measurement": "glycan array binding signal (z-score)", "setting": "[24]", "result": -0.271},
      {"measurement": "glycan array binding signal (z-score)", "setting": "[25]", "result": -0.335},
      {"measurement": "glycan array binding signal (z-score)", "setting": "[26]", "result": -0.26},
      {"measurement": "glycan array binding signal (z-score)", "setting": "[27]", "result": -0.263},
      {"measurement": "glycan array binding signal (z-score)", "setting": "[28]", "result": -0.302},
      {"measurement": "glycan array binding signal (z-score)", "setting": "[29]", "result": -0.331},
      {"measurement": "glycan array binding signal (z-score)", "setting": "[30]", "result": -0.284}
    ]}
  ]
}
